Data: the supplement of paper PMC7125110
Variants at the floor of the assay are shown more often than the library holds them.

B1: glmS ribozyme (parent)
chain: AUAAAAGCGCCAGAACUACAGAAAUGUAGUUGACGAGGAGGAGGUUUAUCGAAUUUUCGGCGGAUGCCUCCAAA

Experiments:
Conditions in all cases: with glucosamine-6-phosphate
glucosamine-6-phosphate [1] = variants of: B1; experiment: self-cleavage kobs at 40 uM GlcN6P; higher = faster cleavage; RNA array
Outline: (§1)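 Tiles bearing barcoded ribozyme variants, transcribed in situ by E. coli RNA polymerase on sequenced MiSeq chips, were imaged over ~14 h at 37 °C using a hybridised Cy3 probe. Glucosamine-6-phosphate was supplied at 40 μM to 10 mM in HEPES/KCl/Mg(OAc)2 buffer. kobs came from one- or two-exponential decay fits to normalised per-tile medians, and weighted Michaelis–Menten fits then provided kcat and KM.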

glucosamine-6-phosphate [2] = variants of: B1; experiment: self-cleavage kobs at 10000 uM GlcN6P; higher = faster cleavage; RNA array
Outline: as §1

glucosamine-6-phosphate [3] = variants of: B1; experiment: self-cleavage kobs at 640 uM GlcN6P; higher = faster cleavage; RNA array
Outline: as §1

glucosamine-6-phosphate [4] = variants of: B1; experiment: self-cleavage kobs at 160 uM GlcN6P; higher = faster cleavage; RNA array
Outline: as §1

glucosamine-6-phosphate [5] = variants of: B1; experiment: self-cleavage kobs at 2500 uM GlcN6P; higher = faster cleavage; RNA array
Outline: as §1

AUAAAAGCUCCAGAACUACAGAAAUGUAGUUGACGAGGAGAAGGGUUAUCGAAUUUUCGGCGGAUGCCUCUAAA
< 1e-05 s⁻¹: self-cleavage kobs at 40 uM GlcN6P (glucosamine-6-phosphate [1]) | self-cleavage kobs at 10000 uM GlcN6P (glucosamine-6-phosphate [2])

AUAAAAGCUCCACAACUACAGAAAUGUAGUUGACGAGGAGGAGGUUUAUCGAAUUUUCGGCGGAUGCAUCCAAA
< 1e-05 s⁻¹: self-cleavage kobs at 40 uM GlcN6P (glucosamine-6-phosphate [1]) | self-cleavage kobs at 10000 uM GlcN6P (glucosamine-6-phosphate [2])

AUAAAAGCUCCAGAACUACAGAAAUGUAGUUGACGAGGAGGAGGUUUAUCGAAUUUUCGCCGGAUGCCUCCAAA
< 1e-05 s⁻¹: self-cleavage kobs at 40 uM GlcN6P (glucosamine-6-phosphate [1]) | self-cleavage kobs at 640 uM GlcN6P (glucosamine-6-phosphate [3]) | self-cleavage kobs at 160 uM GlcN6P (glucosamine-6-phosphate [4])

AUAAAAGCUCCAGAACUACAGAAAUGUAGUUGACGAGGAGGAGGUUUAUCGAAUUGUCGGCGGAUGCCUCCAAA
< 1e-05 s⁻¹: self-cleavage kobs at 40 uM GlcN6P (glucosamine-6-phosphate [1]) | self-cleavage kobs at 640 uM GlcN6P (glucosamine-6-phosphate [3]) | self-cleavage kobs at 160 uM GlcN6P (glucosamine-6-phosphate [4]) | self-cleavage kobs at 2500 uM GlcN6P (glucosamine-6-phosphate [5])

AUAAAAGCUCCAGAACUACAGAAAUGUAUUUGACGAGGAGGAGGUUUAUCGAAUUUUCGGCGGAUGCCUCCAAA
< 1e-05 s⁻¹: self-cleavage kobs at 40 uM GlcN6P (glucosamine-6-phosphate [1]) | self-cleavage kobs at 640 uM GlcN6P (glucosamine-6-phosphate [3]) | self-cleavage kobs at 160 uM GlcN6P (glucosamine-6-phosphate [4]) | self-cleavage kobs at 2500 uM GlcN6P (glucosamine-6-phosphate [5])

AUAAAAGCUCCAGAACUACAGAAAUGUAGUUGACUAGGAGGAGGUUUAUCGAAUUUUCGGCGGAUGCUUACAAA
< 1e-05 s⁻¹: self-cleavage kobs at 40 uM GlcN6P (glucosamine-6-phosphate [1]) | self-cleavage kobs at 10000 uM GlcN6P (glucosamine-6-phosphate [2])

AUAAAAGCUCCAGAACUACAGAAAUGUAGUUGACGAGGAGGAGGUUUAUCGAAUUUACGGCGGAUGCCUCCAAA
< 1e-05 s⁻¹: self-cleavage kobs at 40 uM GlcN6P (glucosamine-6-phosphate [1]) | self-cleavage kobs at 160 uM GlcN6P (glucosamine-6-phosphate [4]) | self-cleavage kobs at 2500 uM GlcN6P (glucosamine-6-phosphate [5]) | self-cleavage kobs at 10000 uM GlcN6P (glucosamine-6-phosphate [2])

AUAAAAGCGACGGAACUACAGAAAUGUAGUUGACGAGGAGGAGGUUUAUCGAAUUUUCGGCGGAUGCCUCCAAA
< 1e-05 s⁻¹: self-cleavage kobs at 40 uM GlcN6P (glucosamine-6-phosphate [1]) | self-cleavage kobs at 10000 uM GlcN6P (glucosamine-6-phosphate [2])

AUAAAAGCUCCAGAACUACAGAAAUGUAGUUGACGAGGAGGACGUUUAUCGAAUUUUCGGCGGAUGCCUCCAAA
< 1e-05 s⁻¹: self-cleavage kobs at 40 uM GlcN6P (glucosamine-6-phosphate [1]) | self-cleavage kobs at 640 uM GlcN6P (glucosamine-6-phosphate [3]) | self-cleavage kobs at 160 uM GlcN6P (glucosamine-6-phosphate [4]) | self-cleavage kobs at 2500 uM GlcN6P (glucosamine-6-phosphate [5]) | self-cleavage kobs at 10000 uM GlcN6P (glucosamine-6-phosphate [2])

AUAAAAGCUCCAGAACUACAGAAAUGUAGUUGACGAGGAGGAGGUUUAUCUAAUUUUCGGCGGAUGCCUCCAAA
< 1e-05 s⁻¹: self-cleavage kobs at 40 uM GlcN6P (glucosamine-6-phosphate [1]) | self-cleavage kobs at 640 uM GlcN6P (glucosamine-6-phosphate [3]) | self-cleavage kobs at 160 uM GlcN6P (glucosamine-6-phosphate [4])

AUAAAAGCUCCAGAACUACAGAAAUGUAGUUGACGAGGAGGAGGUUUAUCGAAAUUUCGGCGGAUGCCUCCAAA
< 1e-05 s⁻¹: self-cleavage kobs at 40 uM GlcN6P (glucosamine-6-phosphate [1]) | self-cleavage kobs at 160 uM GlcN6P (glucosamine-6-phosphate [4]) | self-cleavage kobs at 2500 uM GlcN6P (glucosamine-6-phosphate [5]) | self-cleavage kobs at 10000 uM GlcN6P (glucosamine-6-phosphate [2])

AUAAAAGCUCCAGAACUACAGAAAUGUAAUUGACGAGGAGAAGGUUGAUCGAAUUGUCGGCGGAUGCGUCCAAA
< 1e-05 s⁻¹: self-cleavage kobs at 40 uM GlcN6P (glucosamine-6-phosphate [1]) | self-cleavage kobs at 10000 uM GlcN6P (glucosamine-6-phosphate [2])
